Data reported in the BET-seq Pho4 binding data (Le et al. 2018).
This is one part of the list. These are noisy estimates, calculated here from bound and input reads.

Molecular target: T1, Pho4 (S. cerevisiae) (UniProt P07270)
T1 sequence: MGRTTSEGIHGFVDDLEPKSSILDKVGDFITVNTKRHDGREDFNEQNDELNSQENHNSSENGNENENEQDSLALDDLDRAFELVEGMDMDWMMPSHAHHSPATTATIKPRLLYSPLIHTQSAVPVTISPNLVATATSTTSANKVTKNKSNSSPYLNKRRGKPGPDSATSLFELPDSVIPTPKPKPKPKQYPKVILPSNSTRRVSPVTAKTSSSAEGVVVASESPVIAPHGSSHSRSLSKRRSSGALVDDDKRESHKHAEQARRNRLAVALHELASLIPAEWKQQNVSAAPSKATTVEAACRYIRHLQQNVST
Assay: relative binding free energy (BET-seq); higher = weaker binding
Settings: reference: library average

Row | Sequence | relative binding free energy
1 | AGATGCACGTGTTGAG | 0.06 kcal/mol
2 | TGTGGCACGTGGCCGA | -0.17 kcal/mol
3 | GGTGGCACGTGTCTAA | -0.03 kcal/mol
4 | CTTGGCACGTGATGAT | -0.13 kcal/mol
5 | GGAGGCACGTGGTCCG | -0.16 kcal/mol
6 | TCGGGCACGTGTTAGT | -0.14 kcal/mol
7 | GATATCACGTGATAGT | 0.26 kcal/mol
8 | TTGTACACGTGCATTG | -0.04 kcal/mol
9 | GTCGTCACGTGGGTTA | -0.03 kcal/mol
10 | CAAGTCACGTGGTTAT | 0.12 kcal/mol
11 | AAGGTCACGTGTTGCT | 0.14 kcal/mol
12 | CGGGGCACGTGAAGGG | 0.18 kcal/mol
13 | AAAGGCACGTGATGTA | -0.04 kcal/mol
14 | CTGTTCACGTGTTTAA | 0.09 kcal/mol
15 | CAGATCACGTGGGTTT | 0.06 kcal/mol
16 | TGGCTCACGTGGCGTT | 0.14 kcal/mol
17 | ATTGCCACGTGTGCGG | -0.09 kcal/mol
18 | GGGTACACGTGGTATC | 0.05 kcal/mol
19 | AAGATCACGTGGGAGG | 0.05 kcal/mol
20 | AGTTGCACGTGTTCGT | 0 kcal/mol
21 | ATATACACGTGGCTTT | -0.05 kcal/mol
22 | AGAAGCACGTGGGCAT | -0.18 kcal/mol
23 | GTGGCCACGTGTATTG | 0.03 kcal/mol

Row | Sequence | relative binding free energy
24 | ATGGTCACGTGGAAGA | 0.21 kcal/mol
25 | GTATACACGTGTAAGG | 0.02 kcal/mol
26 | ATAGGCACGTGATCTT | -0.08 kcal/mol
27 | TTTTTCACGTGGAGAG | 0.16 kcal/mol
28 | GGTCACACGTGTTAGG | 0.11 kcal/mol
29 | AGGGACACGTGTAGTC | 0.33 kcal/mol
30 | TGTTTCACGTGTGAGG | 0.25 kcal/mol
31 | GAGGGCACGTGAGGGT | 0.26 kcal/mol
32 | AGTGTCACGTGGTTTA | 0.08 kcal/mol
33 | CAGGTCACGTGGAGTT | 0.24 kcal/mol
34 | GCGGGCACGTGATATG | 0.06 kcal/mol
35 | AATTGCACGTGTTACG | 0.05 kcal/mol
36 | TTACACACGTGTGGTA | 0.01 kcal/mol
37 | TGCGTCACGTGAAAGG | 0.24 kcal/mol
38 | TATCTCACGTGCGGTT | 0.21 kcal/mol
39 | TGGTCCACGTGCGGTG | -0.07 kcal/mol
40 | TGATTCACGTGATGTG | 0.39 kcal/mol
41 | TTTGGCACGTGCTGCT | -0.23 kcal/mol
42 | ACGTGCACGTGGCTGG | -0.21 kcal/mol
43 | GGTGACACGTGTTGCA | 0.22 kcal/mol
44 | CGTCGCACGTGGGGAG | -0.12 kcal/mol
45 | TTTGGCACGTGTTTCG | -0.01 kcal/mol
46 | TGAGTCACGTGGAGAT | 0.1 kcal/mol

Row | Sequence | relative binding free energy
47 | TTAACCACGTGTGGTA | -0.11 kcal/mol
48 | GCAAACACGTGGGGTG | -0.19 kcal/mol
49 | TGGTTCACGTGGTAGT | 0.25 kcal/mol
50 | GGGAACACGTGTCGGT | 0.13 kcal/mol
51 | TTGGCCACGTGGGTAA | -0.2 kcal/mol
52 | TCAGACACGTGTGTGT | -0.07 kcal/mol
53 | ATTCTCACGTGGGTTA | 0.16 kcal/mol
54 | TATTACACGTGTTCTT | 0.17 kcal/mol
55 | AAGATCACGTGTTTAT | -0.02 kcal/mol
56 | TTTTGCACGTGAGCAT | 0.12 kcal/mol
57 | AGCTGCACGTGGTGCG | -0.22 kcal/mol
58 | GACTGCACGTGAGTGT | 0.25 kcal/mol
59 | CTTTTCACGTGTAATA | 0.39 kcal/mol
60 | GGTTACACGTGGGTGC | 0 kcal/mol
61 | GTAGGCACGTGCAGAG | -0.08 kcal/mol
62 | TTGCGCACGTGTGGCA | -0.06 kcal/mol
63 | TGGTGCACGTGATGTG | 0.11 kcal/mol
64 | AACATCACGTGTGTGG | 0.14 kcal/mol
65 | AGTAACACGTGGGTAG | -0.14 kcal/mol
66 | TTCATCACGTGTGGTA | 0.17 kcal/mol
67 | GTACGCACGTGGTTGG | -0.1 kcal/mol
68 | TAGTACACGTGTAATG | 0.1 kcal/mol
69 | ATGAACACGTGATGGT | 0.2 kcal/mol

Row | Sequence | relative binding free energy
70 | TGGTGCACGTGGATGG | 0.08 kcal/mol
71 | GAAAGCACGTGGTATG | -0.12 kcal/mol
72 | TGGCGCACGTGATCTG | 0.1 kcal/mol
73 | GGTGGCACGTGATAGC | 0.01 kcal/mol
74 | TCCTGCACGTGGGTAT | -0.11 kcal/mol
75 | TAACTCACGTGTGCGG | 0.18 kcal/mol
76 | GGGCTCACGTGGATTA | 0.32 kcal/mol
77 | GTAGGCACGTGTGTAT | -0.03 kcal/mol
78 | TTGGCCACGTGGAGGC | -0.17 kcal/mol
79 | CGGGTCACGTGTCGCG | 0.15 kcal/mol
80 | ATGTCCACGTGATGGT | 0.13 kcal/mol
81 | TTATACACGTGTTTCT | -0.14 kcal/mol
82 | TGCGTCACGTGGATAT | 0.19 kcal/mol
83 | TTTATCACGTGCTGCG | 0.03 kcal/mol
84 | GTAGTCACGTGGACTG | 0.28 kcal/mol
85 | TTCTTCACGTGGCGCG | 0.32 kcal/mol
86 | AAGAGCACGTGAGTGG | 0.16 kcal/mol
87 | AGGCACACGTGGATGT | 0.11 kcal/mol
88 | CATAGCACGTGTGTGG | -0.02 kcal/mol
89 | AAAATCACGTGTTGCA | 0.43 kcal/mol
90 | TAAGTCACGTGCGGCT | 0.06 kcal/mol
91 | GTGACCACGTGAGTGG | 0.09 kcal/mol
92 | TAATGCACGTGGAGTT | 0.18 kcal/mol

Row | Sequence | relative binding free energy
93 | GGATGCACGTGTGGAT | 0.16 kcal/mol
94 | AATTACACGTGGAGGT | 0.26 kcal/mol
95 | GATTTCACGTGGCTGG | 0.37 kcal/mol
96 | TGAGACACGTGGGGGT | -0.05 kcal/mol
97 | CTTTTCACGTGTTGTA | 0.21 kcal/mol
98 | ATATTCACGTGGGAAA | 0.18 kcal/mol
99 | AAGTGCACGTGGGGCC | -0.12 kcal/mol
100 | TTAGACACGTGGTTAG | 0.08 kcal/mol
101 | TGCGGCACGTGCTGGT | -0.32 kcal/mol
102 | TATGTCACGTGGTGTT | -0.04 kcal/mol
103 | GTTCTCACGTGTTGTG | 0.24 kcal/mol
104 | GTGGGCACGTGTCTGA | 0.01 kcal/mol
105 | TTAGTCACGTGCTTGC | 0.13 kcal/mol
106 | GGTGTCACGTGGTAAA | 0.11 kcal/mol
107 | AGGGCCACGTGGATGG | -0.15 kcal/mol
108 | TGTAGCACGTGTGAGG | -0.02 kcal/mol
109 | AGATGCACGTGGAGCT | 0.04 kcal/mol
110 | GTAGGCACGTGTGGAT | 0.1 kcal/mol
111 | TTTGTCACGTGGGTTG | -0.09 kcal/mol
112 | CCGGGCACGTGGGGCC | -0.13 kcal/mol
113 | GTCTTCACGTGGTAGC | 0.32 kcal/mol
114 | CTCAGCACGTGTTGGG | -0.02 kcal/mol
115 | TCGCACACGTGGTGGG | 0.08 kcal/mol
